# Measured values taken from PubChem BioAssay AID1347073 (National Center for Advancing Translational Sciences (NCATS), 2019).
# The campaign covered roughly 45,000 compounds. About 200 (0.44%) were called active. Another 7% or so got no clear call; they are omitted. Calls follow the shape of the dose curve; as a rule, active = well fitted activation curve with a large enough effect; inconclusive = small, poorly fitted or top-dose-only effect; inactive = no such curve, though single readings can be large or run the other way. This is one part of the list.
# Test: qHTS of TDP-43 Inhibitors: NCGC Sytravon Library Screen; also: 0% is about no effect; nearly all actives have a fitted effect of over 55% in size
# Settings: yeast TDP-43 toxicity rescue, BacTiter-Glo growth, 24 h; at 46.1 µM (top of the series)
# In short: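 TDP-43-expressing yeast, pregrown in raffinose, seeded at OD600 0.02 in galactose medium with compound for 24 hr at 30 deg C. Growth read by BacTiter-Glo luminescence, so rescue of toxicity appears as activation.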
row,SMILES,growth rescue (activation)
1,O=c1[nH]c2ccccc2c(=O)n1-c1ccc(Cl)c(Cl)c1,inactive: -4.43%
2,Cc1nn(Cc2ccccc2)c(C)c1C(=O)O,inactive: 13.5%
3,CCOC(=O)c1c(/N=C/c2c(O)n(-c3cccc(C)c3)c(=O)[nH]c2=O)sc2c1CCCC2,inactive: 4.36%
4,CN1CCC(N(C)c2ccc(C(N)=O)cc2[N+](=O)[O-])CC1,inactive: 9.48%
5,O=c1cccc2n1CC1CC2CN(c2nc(N3CCCCC3)nc(N3CCCCC3)n2)C1 (stereo unspecified),inactive: 18.1%
6,Cc1c(OC(=O)N(C)C)ccc2c1O/C(=C\c1ccco1)C2=O,inactive: 6.52%
7,COc1cc2c(cc1OC)CN(c1ccc([N+](=O)[O-])c(C(F)(F)F)c1)CC2,inactive: -2.22%
8,C=Cn1ccnc1P(=S)(c1ccc(Cl)cc1)c1nccn1C=C,inactive: 8.37%
9,O=c1c2ccccc2nc(/C=C/c2ccc(O)cc2)n1-c1cccc(O)c1,inactive: 4.34%
10,Cn1cccc1C1CCCN1CC(=O)Nc1ccc(C#N)c(Cl)c1 (stereo unspecified),inactive: -0.083%
11,Cc1ccc(-n2c(O)c(/C=N/N3CCOCC3)c(=O)[nH]c2=S)cc1,inactive: -39%
12,C[C@]12CC[C@@H](O)CC1=CCC1C2CC[C@@]2(C)C1C[C@@H](F)[C@@H]2O (stereo partly specified),inactive: 14.6%
13,CCOc1ccc(Cl)cc1CNCCc1ccccc1F,inactive: -4.78%
14,CN1C(=O)C(=Cc2ccccc2OCCOc2ccc([N+](=O)[O-])cc2)C(=O)N(C)C1=O,inactive: -17%
15,CC1(c2ccc(Cl)cc2Cl)OCC(Cn2cncn2)O1 (stereo unspecified),inactive: 16.5%
16,CNC(=S)N(C)CCc1cc2c(c(OC)c1C=C1C(=O)NC(=O)NC1=O)OCO2,inactive: 8.97%
17,O=C(COC(=O)Cc1ccccc1)Nc1ccc(F)cc1,inactive: 21.6%
18,CCC(C)C12CN3CCN(CC(C)(C3)C1O)C2 (stereo unspecified),inactive: 16.7%
19,COc1ccccc1NC(=O)c1cn(CCC#N)nc1-c1ccc(F)cc1,inactive: -0.708%
20,CCCCn1c(O)c(C(C)=NCCc2ccccc2)c(=O)[nH]c1=O,inactive: 26.2%
21,COc1ccc(OCC(=O)N2CCN(C3CCC(c4ccccc4)CC3)CC2)cc1 (stereo unspecified),inactive: -16%
22,COc1ccccc1N1CCN(Cc2ccc(F)cc2)CC1,inactive: 0.401%
23,Cc1ccc(N2C(=O)NC(=O)C(CCc3ccncc3)(Cc3cccc(Cl)c3Cl)C2=O)cc1 (stereo unspecified),inactive: 14.9%

row,SMILES,growth rescue (activation)
1,NC(Cc1ccc(F)cc1)c1csc(Nc2cnccn2)n1 (stereo unspecified),inactive: 9.84%
2,CN1CCc2cc3c(c4c2C1Cc1ccccc1-4)OCO3 (stereo unspecified),inactive: -10.3%
3,Cc1cccc(NC(=O)Cn2cc(C(=O)c3ccccc3)c3ccccc32)c1,inactive: 9.47%
4,CC(=O)O[C@@H]1CC[C@]2(C)C3CC[C@]4(C)C(=O)[C@H](O)CC4C3[C@@H](OC(C)=O)C[C@H]2C1 (stereo partly specified),inactive: -3.16%
5,Cc1ccc(/C=C2/Sc3ccc(C(=O)N4CCC5(CC4)OCCO5)cc3NC2=O)cc1,inactive: -0.28%
6,COc1ccc(C(=O)C2CCCN(Cc3ccsc3)C2)cc1OC (stereo unspecified),inactive: 2.52%
7,CCCCCCNc1nc(OC)nc(N2CC3CC(C2)c2cccc(=O)n2C3)n1 (stereo unspecified),inactive: 19%
8,CC#CP(=O)(OC)C(O)(CF)c1ccccc1 (stereo unspecified),inactive: 1.38%
9,N/C(=N/[N+](=O)[O-])N1CCN(C(=O)c2ccc(Cl)cc2)CC1,inactive: -6.5%
10,CC(C)c1ccc(-n2c(O)c(/C=N/NC(=O)c3ccncc3)c(=O)[nH]c2=O)cc1,inactive: 21.1%
11,c1ccc(-c2ccc(-c3n(-c4ccccn4)c4ccccc4[n+]3-c3ccccn3)cc2)cc1,inactive: 8.76%
12,Cc1cc(/C=C2\C(=O)NC(=O)N(c3ccc(F)cc3)C2=O)c(C)n1-c1cccc(C(=O)O)c1,inactive: -5.26%
13,CCn1ccnc1CN1CCCC(C(=O)c2cccc(C(F)(F)F)c2)C1 (stereo unspecified),inactive: -11%
14,Cc1cccc(-n2c(/C=C/c3ccccc3O)nc3ccccc3c2=O)c1,inactive: 2.07%
15,CN1C(=O)C(=Cc2cn(CC(=O)N3CCCCC3)c3ccccc23)C(=O)N(C)C1=O,inactive: 10.7%
16,CC(=O)OC1C2CCC1C(N1CCCCC1)CC2 (stereo unspecified),inactive: 2.03%
17,OC(CNCCc1c[nH]c2ccccc12)c1ccccc1 (stereo unspecified),inactive: -3.46%
18,CCOC(=O)C1=CC(=C2C(=O)N(CC)C(=S)N(CC)C2=O)c2ccccc2O1,inactive: 0.343%
19,O=C(Cn1c2c(c(-c3ccccc3Cl)cc1=O)CCC2)N1CCC2(CC1)OCCO2,inactive: 0.179%
20,CC(C)c1ccccc1NC1=NCCCS1,inactive: 8.57%
21,COc1ccc(OC)c(-n2c(O)c(/C=C3\C=Nc4ccccc43)c(=O)[nH]c2=O)c1,inactive: 8.03%
22,CCCCc1nc2ccccc2c(=O)n1-c1ccccc1O,inactive: 6.55%
23,CN1CCN(S(=O)(=O)c2cnc(Cl)c(Br)c2)CC1,inactive: 15.7%

row,SMILES,growth rescue (activation)
1,COc1cc(/C=C/C(=O)c2c(O)n(CCc3ccccc3)c(=O)[nH]c2=O)ccc1O,inactive: -22.9%
2,Cc1cccc(OCCn2cccc2/C=C2/C(=O)NC(=O)N(Cc3ccco3)C2=O)c1,inactive: 6.28%
3,Cc1nn(Cc2ccccc2)c(C)c1C(=O)OCC(=O)NC1CCS(=O)(=O)C1 (stereo unspecified),inactive: 11%
4,Cc1[nH]c2ccc(OC(F)(F)F)cc2c1CCNCc1ccc(Cl)cc1,inactive: 2.98%
5,COc1cccc(C(=O)C2CCCN(Cc3ccon3)C2)c1 (stereo unspecified),inactive: -2.36%
6,O=C(COc1ccccc1)Nc1ccc(Cl)cc1C(=O)c1ccccc1,inactive: -8.92%
7,CCC(=NCCCn1ccnc1)c1c(O)n(-c2ccccc2)c(=O)[nH]c1=O,inactive: 15.2%
8,O=C1/C(=C/c2cccnc2)N2CCC1CC2,inactive: 6.14%
9,Cn1cccc1/C=C1/C(=O)NC(=S)N(Cc2ccc(F)cc2)C1=O,inactive: 5.45%
10,C=CCn1c(O)c(C(CC)=Nc2cccc(C(=O)O)c2)c(=O)[nH]c1=O,inactive: -10.7%
11,CCCCC(=O)N/N=C/c1c(O)n(Cc2ccco2)c(=O)[nH]c1=O,inactive: 16.5%
12,CC(=O)OC1N=C(c2ccccc2Cl)c2cc(Br)ccc2NC1=O (stereo unspecified),inactive: -7.37%
13,CCN1CCC2(CC1)NC(CO)(CO)CO2,inactive: 24.8%
14,O=c1[nH]c(=S)n(-c2ccccc2)c(O)c1/C=N/N1CCCCC1c1cccnc1 (stereo unspecified),inactive: 4.43%
15,COCCCNC(=O)c1c(NC(=O)c2ccco2)n(Cc2ccccc2)c2nc3ccccc3nc12,inactive: -11.1%
16,C[C@]12C[C@H](O)[C@@H](O)CC1=CCC1C2CC[C@@]2(C)C1CC[C@@H]2O (stereo partly specified),inactive: 0.646%
17,O=C(NC1CCCCC1)N1C[C@H]2C[C@@H](C1)c1cccc(=O)n1C2,inactive: 9.65%
18,COc1ccc(NC(=O)C2C3CCC(O3)C2C(=O)O)c(OC)c1 (stereo unspecified),inactive: 1.62%
19,O=C1CN=C(c2ccc(Cl)cc2)c2oc3ccccc3c2N1,inactive: 8.13%
20,Cn1cc(C(=O)Cc2ccccc2)c2ccccc21,inactive: 11.9%
21,O=c1[nH]c(O)c(N=Nc2ccc(S(=O)(=O)N3CCOCC3)cc2)c(=O)[nH]1,inactive: -1.93%
22,CC1CCSP(=O)(Oc2ccccc2)O1 (stereo unspecified),inactive: -7.5%
23,O=C(Cc1ccccc1F)N1CCN(CC(=O)N2CCCC2)CC1,inactive: 15.2%

row,SMILES,growth rescue (activation)
1,O=C1NC(=O)N(Cc2ccccc2)C(=O)/C1=C\N1CCCc2ccccc21,inactive: -19%
2,N#Cc1ccc(NC(=O)CN2CCN(C(=O)c3cccs3)CC2)cc1Cl,inactive: 16.9%
3,C=CCn1c(O)c(C(CC)=Nc2cccc(C(F)(F)F)c2)c(=O)[nH]c1=O,inactive: -2.29%
4,COc1cc2[nH]c(=O)n(-c3ccc(C)cc3)c(=O)c2cc1OC,inactive: 7.49%
5,CCOC(=O)c1c(/N=C/C2C(=O)NC(=S)NC2=O)sc2c1CCC2,inactive: -15.4%
6,O=C1NC(=O)C(=Cc2ccccc2OCCOc2ccc([N+](=O)[O-])cc2)C(=O)N1,inactive: -49.1%
7,O=C1N(c2cccc(Cl)c2)C(c2cccnc2)N2CCCN12 (stereo unspecified),inactive: 4.52%
8,CCC(=NCCCO)c1c(O)n(-c2ccc(OC)cc2)c(=O)[nH]c1=O,inactive: -17.7%
9,Cn1c(N)c(C(=O)COC(=O)Cc2ccccc2)c(=O)n(C)c1=O,inactive: 1.03%
10,CCCCn1c(NC(=O)c2ccc(Br)o2)c(C(=O)OCC)c2nc3ccccc3nc21,inactive: 6.37%
11,N#Cc1c(/N=C/c2ccc(O)cc2O)sc2c1C1CCN2CC1,inactive: -0.698%
12,Cc1ccc(N2C(=O)NC(=O)/C(=C\c3ccoc3)C2=O)cc1,inactive: 14.6%
13,CC(Cc1cnccn1)NCc1c(C(=O)N2CCCCCCC2)nc2ccc(Cl)cn12 (stereo unspecified),inactive: 9.58%
14,CN1CCN(c2ccc([N+](=O)[O-])c(N3CCCCC3)c2)CC1,inactive: 0.403%
15,C[C@]12CC[C@H](O)CC1=CC(=O)C1C2CC[C@]2(C)C(=O)[C@H](O)CC12 (stereo partly specified),inactive: -9.91%
16,COC(=O)C(Cc1ccc(N(CCCl)CCCl)cc1)N=Cc1ccccc1O (stereo unspecified),inactive: 4.43%
17,O=P(C(Cl)Cl)(N1CCOCC1)N1CCOCC1,inactive: 7.8%
18,CC(C)N1C(=O)NC(=O)C2(Cc3cc([N+](=O)[O-])ccc3N(C)C2c2ccccc2)C1=O (stereo unspecified),inactive: 6.06%
19,Cc1ccccc1CN1CCN(C(=O)Cc2ccccc2)CC1,inactive: -15.5%
20,COC(=O)Cn1cc(C=C2C(=O)NC(=O)NC2=O)c2ccccc21,inactive: 20.4%
21,Cc1cccc(N2C(=O)NC(=O)/C(=C\c3cccn3-c3ccc(Cl)cc3)C2=O)c1,inactive: -26.1%
22,COc1ccc(Cn2c(O)c(/C=N/NC(=O)c3ccncc3)c(=O)[nH]c2=O)cc1,inactive: -1.89%
